Laboratory results reported in EPA's CvTdb concentration-time database.
The source gives many values for each of these; only a part stands here.

Legend:
[1] = system: Rat; assay: concentration in brain after dosing; details: 0.5 h; dosed: 2-Methyltetrahydrofuran; 30 mg/kg; oral; Female; F344
[2] = system: Rat; assay: concentration in brain after dosing; details: 8 min; dosed: 2-Methyltetrahydrofuran; 30 mg/kg; oral; Female; F344
[3] = system: Rat; assay: concentration in brain after dosing; details: 20 min; dosed: 2-Methyltetrahydrofuran; 30 mg/kg; oral; Female; F344
[4] = system: Rat; assay: concentration in brain after dosing; details: 0.75 h; dosed: 2-Methyltetrahydrofuran; 10 mg/kg; oral; Female; F344
[5] = system: Rat; assay: concentration in brain after dosing; details: 0.25 h; dosed: 2-Methyltetrahydrofuran; 30 mg/kg; oral; Female; F344
[6] = system: Rat; assay: concentration in brain after dosing; details: 1 h; dosed: 2-Methyltetrahydrofuran; 10 mg/kg; iv; Female; F344
[7] = system: Rat; assay: concentration in brain after dosing; details: 10 min; dosed: 2-Methyltetrahydrofuran; 10 mg/kg; oral; Male; F344
[8] = system: Rat; assay: concentration in brain after dosing; details: 0.25 h; dosed: 2-Methyltetrahydrofuran; 30 mg/kg; oral; Male; F344
[9] = system: Rat; assay: concentration in brain after dosing; details: 2 min; dosed: 2-Methyltetrahydrofuran; 10 mg/kg; iv; Female; F344
[10] = system: Rat; assay: concentration in brain after dosing; details: 2 min; dosed: 2-Methyltetrahydrofuran; 10 mg/kg; oral; Female; F344
[11] = system: Rat; assay: concentration in brain after dosing; details: 0.25 h; dosed: 2-Methyltetrahydrofuran; 10 mg/kg; iv; Male; F344
[12] = system: Rat; assay: concentration in brain after dosing; details: 2 h; dosed: 2-Methyltetrahydrofuran; 10 mg/kg; iv; Male; F344
[13] = system: Rat; assay: concentration in brain after dosing; details: 1 h; dosed: 2-Methyltetrahydrofuran; 10 mg/kg; iv; Female; F344; remark: listed apart in the source
[14] = system: Rat; assay: concentration in plasma after dosing; details: 8 min; dosed: 2-Methyltetrahydrofuran; 10 mg/kg; oral; Male; F344
[15] = system: Rat; assay: concentration in plasma after dosing; details: 0.25 h; dosed: 2-Methyltetrahydrofuran; 10 mg/kg; oral; Female; F344
[16] = system: Rat; assay: concentration in plasma after dosing; details: 2 min; dosed: 2-Methyltetrahydrofuran; 10 mg/kg; iv; Female; F344
[17] = system: Rat; assay: concentration in plasma after dosing; details: 10 min; dosed: 2-Methyltetrahydrofuran; 30 mg/kg; oral; Female; F344
[18] = system: Rat; assay: concentration in plasma after dosing; details: 20 min; dosed: 2-Methyltetrahydrofuran; 30 mg/kg; oral; Male; F344
[19] = system: Rat; assay: concentration in plasma after dosing; details: dosed: Bromochloroacetic acid, 40 mg/kg, oral, Female, F344
[20] = system: Rat; assay: concentration in plasma after dosing; details: 5 min; dosed: Bromochloroacetic acid; 10 mg/kg; iv; Male; F344
[21] = system: Rat; assay: concentration in plasma after dosing; details: 10 min; dosed: Bromochloroacetic acid; 10 mg/kg; iv; Male; F344
[22] = system: Rat; assay: concentration in plasma after dosing; details: 20 min; dosed: Bromochloroacetic acid; 10 mg/kg; iv; Male; F344
[23] = system: Rat; assay: concentration in plasma after dosing; details: 12 h; dosed: Fluorotelomer alcohol 8+2; 80 mg/kg; oral; Female; Harlan Sprague Dawley
[24] = system: Rat; assay: concentration in plasma after dosing; details: dosed: Fluorotelomer alcohol 8+2, 48 mg/kg, oral, Male, Harlan Sprague Dawley
[25] = system: Rat; assay: concentration in plasma after dosing; details: 48 h; dosed: Fluorotelomer alcohol 8+2; 160 mg/kg; oral; Female; Harlan Sprague Dawley
[26] = system: Rat; assay: concentration in plasma after dosing; details: 1 h; dosed: Fluorotelomer alcohol 8+2; 24 mg/kg; oral; Male; Harlan Sprague Dawley
[27] = system: Rat; assay: concentration in plasma after dosing; details: 5 h; dosed: Formamide; 30 mg/kg; iv; Female; F344
[28] = system: Rat; assay: concentration in plasma after dosing; details: dosed: Formamide, 36 mg/kg, oral, Female, Harlan Sprague Dawley
[29] = system: Rat; assay: concentration in plasma after dosing; details: dosed: Formamide, 600 mg/kg, oral, Female, Harlan Sprague Dawley
[30] = system: Rat; assay: concentration in plasma after dosing; details: dosed: Formamide, 90 mg/kg, iv, Male, Harlan Sprague Dawley
[31] = system: Rat; assay: concentration in plasma after dosing; details: dosed: Formamide, 600 mg/kg, oral, Male, Harlan Sprague Dawley
[32] = system: Rat; assay: concentration in plasma after dosing; details: dosed: Formamide, 90 mg/kg, iv, Male, Harlan Sprague Dawley; remark: listed apart in the source
[33] = system: Rat; assay: concentration in plasma after dosing; details: 40 min; dosed: Pyridine; 50 mg/kg; oral; Female; F344
[34] = system: Rat; assay: concentration in plasma after dosing; details: 9 h; dosed: Pyridine; 200 mg/kg; oral; Female; F344
[35] = system: Rat; assay: concentration in plasma after dosing; details: 40 min; dosed: Pyridine; 50 mg/kg; oral; Male; Harlan Sprague Dawley
[36] = system: Rat; assay: concentration in plasma after dosing; details: 6 h; dosed: Pyridine; 50 mg/kg; oral; Female; Harlan Sprague Dawley
[37] = system: Rat; assay: concentration in plasma after dosing; details: 40 min; dosed: Pyridine; 50 mg/kg; oral; Female; F344; remark: listed apart in the source
[38] = system: Rat; assay: concentration in plasma after dosing; details: 2 min; dosed: Pyridine; 10 mg/kg; oral; Male; Harlan Sprague Dawley
[39] = system: Rat; assay: concentration in plasma after dosing; details: dosed: Pyridine, 5 mg/kg, oral, Female, F344

CC1CCCO1 (configuration not stated) [2-Methyltetrahydrofuran]
Details | concentration in brain [µg/g] | concentration in plasma [ng/mL]
[1] | 11.1 | –
[2] | 8.65 | –
[3] | 6.97 | –
[4] | 1.04 | –
[5] | 10.4 | –
[6] | 0.582 | –
[7] | 3.09 | –
[8] | 11.6 | –
[9] | 10.9 | –
[10] | 1.71 | –
[11] | 5.66 | –
[12] | 0.199 | –
[13] | 0.675 | –
[14] | – | 3150
[15] | – | 3410
[16] | – | 19800
[17] | – | 16700
[18] | – | 20000

O=C(O)C(Cl)Br (configuration not stated) [Bromochloroacetic acid]
[19]
Details | concentration in plasma [ng/mL]
4 h | 1080
20 min | 12300

Details | concentration in plasma [ng/mL]
[20] | 11300
[21] | 4560
[22] | 1500

OCCC(F)(F)C(F)(F)C(F)(F)C(F)(F)C(F)(F)C(F)(F)C(F)(F)C(F)(F)F [Fluorotelomer alcohol 8+2]
Details | concentration in plasma [ng/mL]
[23] | 39.5
[25] | 5
[26] | 373

[24]
Details | concentration in plasma [ng/mL]
1 h | 835
24 h | 5.95

NC=O [Formamide]
Details | concentration in plasma [ng/mL]
[27] | 31300

Details | concentration in plasma [ng/mL]
[28], 8 h | 36800
[28], 12 h | 28400
[29], 1.5 h | 704000
[29], 30 h | 172000
[30], 2 h | 155000
[30], 96 h | 2800
[31], 1.5 h | 727000
[31], 30 h | 397000
[32], 0.5 h | 136000
[32], 48 h | 3800

c1ccncc1 [Pyridine]
Details | concentration in plasma [ng/mL]
[33] | 26900
[34] | 46500
[35] | 35300
[36] | 16200
[37] | 29800
[38] | 5130

[39]
Details | concentration in plasma [ng/mL]
1 h | 3310
8 h | 917
